# Laboratory results taken from PubChem BioAssay AID488969 (Vanderbilt High Throughput Screening Facility, 2010).
# The full ranking holds about 110,000 compounds; the median of “z-score” is about -0.1, and the highest 2% start at about 2. Some of the results follow. Calls of active or inactive are those of the source.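 The calls were made as follows: active = z-score in the third read window above 3 or below -3; inactive = the rest.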
# Target: Metabotropic glutamate receptor 8 (Rattus norvegicus) (UniProt P70579)
# Assay: rat mGluR8 modulators via GIRK flux, primary screen, cell-based, thallium flux, HTS (AID 488969)
# Settings: HEK293 rat mGluR8, GIRK (G protein-gated inwardly rectifying potassium channel) thallium flux, FluoZin2; at 10 µM; stronger effect = higher value; submaximal glutamate (EC20) added with thallium
# Chain of UniProt P70579 (P70579 whole entry, looked up): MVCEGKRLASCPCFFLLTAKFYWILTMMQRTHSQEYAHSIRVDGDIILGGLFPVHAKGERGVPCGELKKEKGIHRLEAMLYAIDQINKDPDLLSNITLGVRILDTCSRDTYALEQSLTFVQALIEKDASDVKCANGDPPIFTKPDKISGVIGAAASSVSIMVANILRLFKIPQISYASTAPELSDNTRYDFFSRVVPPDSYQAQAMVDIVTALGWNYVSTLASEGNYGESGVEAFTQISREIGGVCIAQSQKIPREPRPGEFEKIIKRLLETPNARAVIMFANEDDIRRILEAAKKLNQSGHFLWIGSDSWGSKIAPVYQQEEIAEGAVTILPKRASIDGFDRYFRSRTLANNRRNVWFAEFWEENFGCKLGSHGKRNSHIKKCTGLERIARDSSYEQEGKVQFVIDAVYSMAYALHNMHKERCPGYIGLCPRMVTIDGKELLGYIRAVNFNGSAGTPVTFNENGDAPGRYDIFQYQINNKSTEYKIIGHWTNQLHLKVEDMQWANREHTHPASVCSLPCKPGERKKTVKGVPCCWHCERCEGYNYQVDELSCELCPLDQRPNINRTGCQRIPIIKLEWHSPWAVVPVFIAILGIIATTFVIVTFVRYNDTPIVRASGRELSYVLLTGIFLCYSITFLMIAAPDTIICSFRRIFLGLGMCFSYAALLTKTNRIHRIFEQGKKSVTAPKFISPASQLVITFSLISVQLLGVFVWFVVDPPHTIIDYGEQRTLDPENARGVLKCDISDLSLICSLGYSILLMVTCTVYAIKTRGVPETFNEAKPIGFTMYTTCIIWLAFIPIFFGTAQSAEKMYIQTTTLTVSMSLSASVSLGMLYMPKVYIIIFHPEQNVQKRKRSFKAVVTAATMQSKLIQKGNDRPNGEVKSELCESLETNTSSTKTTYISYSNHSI
row,SMILES,z-score
1,O=C(CN1CCN(c2ncccn2)CC1)N(Cc1ccccc1)c1ccc(F)cc1,-1.45
2,N#Cc1nc(COc2ccccc2)oc1N1CCCCCC1,-0.881
3,COCc1cc(=O)[nH]c(Nc2nc(C)c3cc(OC)ccc3n2)n1,-0.401
4,CN(C)c1cccc(C(=O)OCC(=O)NCC2CCCO2)c1 (stereo unspecified),-0.266
5,Cc1ccc2nc(/C(C#N)=C/c3cn[nH]c3-c3ccc(F)cc3)[nH]c2c1,0.00106
6,CCC1C(=O)N=C(SCC(=O)Nc2cccc3ccccc23)NC1=O (stereo unspecified),0.296
7,COC(=O)c1ccc(-n2nc(C(F)(F)F)c3c2-c2ccoc2CC3)cc1,-0.167
8,O=C(CN(c1ccc(Cl)cc1)S(=O)(=O)c1ccccc1)N1CCN(c2ccccc2)CC1,-0.37
9,Cc1cc(C)nc(SCC(=O)c2c(N)n(C)c(=O)n(C)c2=O)n1,-0.282
10,COc1ccccc1NC(=O)N1c2ccc(F)cc2CCC1C (stereo unspecified),1.43
11,CCN(CC)CC(=O)Nc1ccc2c(c1)Nc1ccccc1CC2,2.49
12,Cc1cc(=O)n(C(NC(=O)c2ccccc2)C(=O)c2ccccc2)cn1 (stereo unspecified),-0.888
13,Cc1cc(=O)[nH]c(SCC(=O)O)c1C#N,-0.0372
14,CC1(C)CC(=O)CC(C)(C)N1OC(=O)c1ccncc1,0.285
15,O=C(O)c1ccc(N=NN2CCCCCC2)cc1,-0.183
16,COC(=O)N1N=C(c2ccccc2)CC1(O)C(F)(F)F (stereo unspecified),-0.0474
17,O=C(Nc1c(Cl)cccc1Cl)c1ccc(-c2ccccc2)cc1,-0.141
18,CCN1/C(=C2\OC(=S)N(C)C2=O)Sc2ccccc21,0.0145
19,O=[N+]([O-])c1ccccc1/C=N/Nc1nccnc1Cl,0.0122
20,C=CCNC(=O)C1CC=CCC1C(=O)O (stereo unspecified),0.472
21,Cn1c(=O)n(-c2ccc(Cl)cc2)c(=O)c2c3c(sc21)COC(C)(C)C3,-0.582
22,CCOC(=O)c1ccccc1NC(=O)c1cn(-c2ccc(C)c(C)c2)c(=O)c2ccccc12,-0.151
23,O=c1oc2c(CN3CCCCC3)c(O)ccc2c2c1CCCC2,-0.148

row,SMILES,z-score
1,Cn1c(SCc2ccccc2Cl)nc(C(F)(F)F)cc1=O,-0.0528
2,CCCCNc1cc(C)oc(=O)c1C(C)=O,0.297
3,Cc1cc(C)cc(NC(=O)COc2ccc3c(C)c(Cc4ccccc4)c(=O)oc3c2)c1,-0.277
4,CCc1ccc(CN2CCN(C(=O)c3cccc(OC)c3OC)CC2)cc1,-0.484
5,CC1(C)c2ssc(=S)c2-c2ccccc2N1C(=O)CSC1=NCCS1,-0.279
6,Cc1cccc(NC(=O)c2cc(Cl)sc2Cl)c1C,0.0762
7,O=C(c1ccccc1-c1ccccc1)N1CCCC1,-0.25
8,CCOC(=O)/C=C(/C)N1N=C(c2ccc(OC)cc2)CC1c1cccc([N+](=O)[O-])c1 (stereo unspecified),0.0194
9,COc1cc(/C=N/NC(=O)c2ccncc2)ccc1OC(=O)c1ccc([N+](=O)[O-])cc1,-0.108
10,O=C(Nc1ccc(/C=C/c2nc3ccccc3o2)cc1)c1ccc(F)cc1,-0.316
11,O=C(c1ccc2nc(N3CCOCC3)sc2c1)N1CCN(C(=O)c2ccco2)CC1,-0.0384
12,Cc1ccc(CNC(=O)C2CCCN(S(=O)(=O)c3cccnc3)C2)cc1 (stereo unspecified),-0.223
13,CCOC(=O)c1[nH]c(=O)[nH]c1COC(=O)c1cc2ccccc2o1,-0.246
14,CN1CCN(S(=O)(=O)c2ccc(NC(=O)c3cccc(S(=O)(=O)N4CCCC4)c3)cc2)CC1,0.169
15,Clc1cc(Br)ccc1OCCOCCN1CCOCC1,-1.2
16,O=C(Nn1c(-c2ccc(Br)cc2)nc2ccccc2c1=O)c1ccc([N+](=O)[O-])cc1,0.087
17,Cc1ccc(S(=O)(=O)NCC(=O)N2CCCC2)cc1,-0.217
18,Cc1ccnc(N2CCC(C(=O)NNC(=O)COc3cccc4ccccc34)CC2)n1,0.336
19,C=CCc1ccc(OCC(O)CN2CCCCC2)c(OC)c1 (stereo unspecified),0.317
20,O=C(NNC1=C(C(=O)C(F)(F)F)CCC1)c1cccc(Cl)c1,0.3
21,Cc1ccc(OCC(=O)N/N=C/c2ccc([N+](=O)[O-])o2)cc1,0.0523
22,Cc1ccc(N2C(=O)S/C(=C/c3cn(C)c4ccccc34)C2=O)cc1,1.03
23,CCc1cc2c(NCCC(=O)O)ncnc2s1,-1.23

row,SMILES,z-score
1,COc1ccc(/C=N/NC(N)=S)cc1OC(=O)c1cccc2ccccc12,-0.237
2,Cc1ccc(S(=O)(=O)N(C)CC(=O)N2CCCc3ccccc32)cc1,-0.119
3,Cc1cc(C)n2nc(CC(=O)NCc3ccccc3Cl)nc2n1,0.17
4,COc1ccccc1CNC(=O)c1ccc(S(=O)(=O)N(C)C)cc1,0.206
5,O=C1O/C(=C\c2ccccc2)c2ccccc21,0.00856
6,CC1(C)CC(=O)C=C(NCc2ccc(Cl)c(Cl)c2)C1,-0.131
7,Cc1ccc(-c2cc(C(=O)N3CCN(c4ccc(F)cc4)CC3)c3ccccc3n2)o1,-0.216
8,CCC(=O)Nc1cc2nn(-c3ccccc3)nc2cc1Cl,0.0874
9,CCCCN1C(=O)NC2NC(=O)NC21 (stereo unspecified),-0.0294
10,COc1cc(OC)cc(C(=O)Nc2ccc(S(=O)(=O)Nc3cc(C)nc(C)n3)cc2)c1,-0.251
11,O=C(NC(=S)NNS(=O)(=O)c1ccccc1)c1ccccc1[N+](=O)[O-],-0.154
12,O=C1c2ccccc2C(=O)C12OC(c1ccccc1)C1(C(=O)c3ccccc3C1=O)C2c1cccc([N+](=O)[O-])c1 (stereo unspecified),-0.381
13,CCOC(=O)c1sc(NC(=O)c2noc3c2CCCC3)c(C(=O)OCC)c1C,0.444
14,CC(C)c1ccccc1OCC(=O)NC1CCCc2ccccc21 (stereo unspecified),-0.323
15,CC(C)Oc1ccc(CC2CC(=O)NC2=O)cc1 (stereo unspecified),-0.119
16,c1ccc2c(N3CCCCCC3)nc(-c3ccncc3)nc2c1,active: -4.67
17,CCN(CC)C(=O)C1CCCN(C/C(C)=C/c2ccccc2)C1 (stereo unspecified),-0.226
18,Cn1cnc([N+](=O)[O-])c1NC(C)(C)C,0.469
19,OC1(c2ccc(F)cc2)CN(c2ccccc2)C2=[N+]1CCS2 (stereo unspecified),-0.591
20,Cc1ccc(C)c2[nH]c(=O)c(C(c3nnnn3C(C)(C)C)N3CC=C(c4ccc(F)cc4)CC3)cc12 (stereo unspecified),-0.208
21,CCCCCCn1c(C)nc2c(c1=O)c1nc3ccccc3nc1n2/N=C/c1ccco1,0.218
22,O=C(NCCN1CCCC1)C1(S(=O)(=O)c2ccc(Cl)cc2)CC1,0.00974
23,COC(=O)/C=C/C(=O)N1CCN(c2cccc(Cl)c2)CC1,0.228

row,SMILES,z-score
1,Cc1c(CNCc2cccs2)c(C(=O)O)c(C)n1Cc1ccccc1,-0.442
2,O=C(Nc1cccc(-c2cn3ccccc3n2)c1)c1cnccn1,0.132
3,Cc1c(C(=O)Nc2nc3ccccc3[nH]2)cccc1[N+](=O)[O-],0.835
4,CC(=O)Oc1c(C)cc(O)c2ccccc12,-0.327
5,CCCCCSc1nnc(C)c(=O)[nH]1,-0.099
6,COc1cccc(-n2c(CN3CCN(c4cccc(C)c4)C(C)C3)nc3ccc([N+](=O)[O-])cc3c2=O)c1 (stereo unspecified),-0.14
7,CC(C)c1nnc(NC(=O)CCC(=O)Nc2ccc(F)cc2)s1,0.0341
8,Cc1ccc(C(=O)Nc2ccc(F)cc2F)o1,-0.0232
9,O=C(Cc1nc(-c2ccc([N+](=O)[O-])cc2)cs1)Nc1ccccc1,-0.161
10,OCCNCCCCOc1ccc(OCc2ccccc2)cc1,0.352
11,Cc1cc2c(cc1C)-c1nnc(-c3ccc4ccccc4n3)n1C(C)(C)C2,-0.849
12,O=C(c1ccccc1)N1CCN(Cc2ccccc2)CC1,-0.853
13,CCOc1ccc(/C=C2\SC(=S)N(Nc3ccccc3)C2=O)cc1OC,1.05
14,COc1ccc(OC2C(=O)N(Cc3ccc4c(c3)OCO4)C2c2cccs2)cc1 (stereo unspecified),-0.163
15,CCOC(=O)c1ccc(NC(=O)N2CC(C)OC(C)C2)cc1 (stereo unspecified),-0.356
16,Cn1sc(NC(=O)c2cccc(Cl)c2)nc1=O,0.875
17,O=C(NCc1ccc2c(c1)OCO2)C1CCN(S(=O)(=O)c2cccs2)CC1,-0.274
18,COc1cc(/C=N/NC(=O)CCc2n[nH]c(=O)[nH]c2=O)ccc1O,0.337
19,c1ccc2c(c1)sc1nnnn12,0.901
20,CC1CN(S(=O)(=O)c2ccc(Cl)c(S(=O)(=O)N3CC(C)OC(C)C3)c2)CC(C)O1 (stereo unspecified),-0.309
21,CC12CCC(C(=O)Nc3cccnc3)(CC1=O)C2(C)C (stereo unspecified),-0.316
22,CCOC(=O)C1=C(C)N(c2ccc(OC)cc2)C(=O)/C1=C\c1cccs1,-0.132
23,CCCCNC(=O)Nc1nnc(-c2ccc(Cl)cc2)o1,-0.915

row,SMILES,z-score
1,CN1C(=O)c2ccccc2C(C(=O)O)C1c1cn(C)c2ccccc12 (stereo unspecified),-0.114
2,COC(=O)c1cc(C(=O)Nc2cccc(C)n2)cc([N+](=O)[O-])c1,-0.243
3,COc1ccc(-c2nc(SC(CC(=O)NCc3ccccc3)c3ccc(OC)c(OC)c3)n[nH]2)cc1 (stereo unspecified),-0.352
4,Cc1occc1C(=O)NCc1ccco1,0.0264
5,COC(=O)Cc1c[nH]c2cccc(OCC(O)CN(Cc3ccccc3)C(C)C)c12 (stereo unspecified),0.637
6,CCc1ccc2[nH]c3nc(SCc4nnc(-c5ccc(C)cc5)o4)nnc3c2c1,-0.413
7,Fc1ccc(Nc2ncnc3sc4c(c23)CCC4)cc1F,0.938
8,COc1ccc2oc(=O)c(NC(=O)C3CCCCC3)cc2c1,-0.0765
9,CC/C(O)=C1\C(=O)CC(c2ccccc2)CC1=NCCC(=O)O (stereo unspecified),-0.467
10,O=C(Nc1cccnc1)c1ccc(COc2ccccc2Cl)o1,-0.832
11,Cc1cccc(C(=O)N/N=C/C(C)Cc2ccc3c(c2)OCO3)c1 (stereo unspecified),-0.261
12,O=c1[nH]c2ccc(S(=O)(=O)N3CCN(C4CCCCC4)CC3)cc2[nH]c1=O,-0.0711
13,COc1ccccc1OCC(=O)Nc1ccc(CSc2ccccc2)cc1C,-0.0901
14,Cc1ccc2nc(-c3ccc(N4C(=N)SC5CS(=O)(=O)CC54)cc3)sc2c1 (stereo unspecified),2.09
15,Cc1ccc(C(=O)NCCNc2ccc([N+](=O)[O-])cc2C(F)(F)F)cc1,-0.285
16,NC(=O)N/N=C/c1cc(Br)ccc1OC(=O)c1ccccc1,-0.422
17,O=C(NC(=S)Nc1ccc(S(=O)(=O)N2CCCC2)cc1)C1CCC1,-0.279
18,Cc1csc(NC(=O)CCc2ccc(S(=O)(=O)N3CCOCC3)cc2)n1,-0.107
19,O=C(c1ccccc1)C(Cn1cncn1)C(Sc1ccccc1)c1ccccc1 (stereo unspecified),-0.248
